# The supplement of paper PMC3334620
# In all, about 33,000 sequences were measured (“E-score (-0.5 to 0.5)”: median about -0.041, highest 2% from about 0.37 on). This is one part of the list.
# Target: T1, Ecm22 (UniProt Q05958)
# T1 sequence: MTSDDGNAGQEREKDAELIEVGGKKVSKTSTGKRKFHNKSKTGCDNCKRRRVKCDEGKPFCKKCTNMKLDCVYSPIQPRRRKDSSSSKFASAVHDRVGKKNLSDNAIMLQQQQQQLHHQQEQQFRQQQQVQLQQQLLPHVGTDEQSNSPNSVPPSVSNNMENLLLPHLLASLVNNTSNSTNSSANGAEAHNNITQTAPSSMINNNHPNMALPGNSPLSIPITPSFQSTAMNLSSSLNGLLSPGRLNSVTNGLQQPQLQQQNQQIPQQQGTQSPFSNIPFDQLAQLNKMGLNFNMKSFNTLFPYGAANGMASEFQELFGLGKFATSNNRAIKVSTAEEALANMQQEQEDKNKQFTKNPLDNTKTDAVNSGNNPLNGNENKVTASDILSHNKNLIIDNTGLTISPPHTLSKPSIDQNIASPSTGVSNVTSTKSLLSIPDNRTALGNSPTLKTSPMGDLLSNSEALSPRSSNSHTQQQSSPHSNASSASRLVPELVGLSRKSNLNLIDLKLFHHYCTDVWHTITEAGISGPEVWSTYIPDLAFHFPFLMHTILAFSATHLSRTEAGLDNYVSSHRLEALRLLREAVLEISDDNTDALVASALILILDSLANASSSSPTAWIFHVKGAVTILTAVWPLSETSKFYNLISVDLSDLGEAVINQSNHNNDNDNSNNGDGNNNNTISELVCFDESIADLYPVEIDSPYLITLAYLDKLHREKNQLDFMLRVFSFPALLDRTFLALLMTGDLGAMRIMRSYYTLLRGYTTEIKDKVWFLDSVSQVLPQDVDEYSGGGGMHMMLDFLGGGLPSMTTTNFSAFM
# Assay: PBM E-score (8-mer binding enrichment) (E-score (-0.5 to 0.5)); higher = stronger / more preferred TF binding; most listed sequences are background and not binding sites
# Details: protein concentration: 200 nM; construct: GST-full length
# Procedure, shortened: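 Each ungapped eight-base word and its reverse complement, pooled, received an E-score from the Universal PBM Analysis Suite. Underlying scans, normalised with masliner, recorded fluorescent anti-GST bound to GST-tagged yeast transcription factors. These were applied at about 100-200 nM to universal all-10-mer Agilent arrays double-stranded by primer extension.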
row,Sequence,PBM E-score
1,CGAACGTC,0.0995
2,AAAGGGTT,-0.181
3,AAGTTTAA,-0.226
4,CACTCGGG,0.0561
5,CCCCAGCG,-0.175
6,TACCCCAA,-0.149
7,AAACCCTG,-0.126
8,AAAATTAG,-0.169
9,AGGTGCTG,-0.371
10,CATACAAA,-0.0105
11,AACGAGAC,0.451
12,ATTGCGCG,0.148
13,GGAAGCAA,-0.105
14,GACACGGC,-0.13
15,ATCATTTA,0.226
16,CATAAGGC,-0.0707
17,AAAGATAT,-0.0162
18,ACCTAATC,0.0827
19,ATGTGGAG,-0.148
20,GAATGCCC,-0.0918
21,TCGCAGCA,0.0212
22,CCAGATTC,-0.309

row,Sequence,PBM E-score
1,CACGCCCG,0.059
2,GAAACATC,-0.136
3,ACGGTCAA,0.297
4,CCGATTCG,0.206
5,CCTGGGAA,-0.0511
6,AACGATAA,0.382
7,CATTACGA,0.289
8,ATAACCCG,0.0801
9,CCTGATCA,-0.154
10,AAAGGATC,-0.174
11,CGTCATCC,-0.0605
12,AGGACGTC,-0.135
13,AGCAGAGC,0.0272
14,ATAAAGGG,-0.03
15,GCCTTGCA,-0.181
16,ACAATGCC,-0.193
17,AGCATCTC,-0.166
18,CCTCTAAA,-0.193
19,GCACAAAA,0.0309
20,ACCCTCTC,-0.214
21,CACCATCG,-0.161
22,GACTGTAC,0.253

row,Sequence,PBM E-score
1,CTCGCAAA,0.319
2,GTCCCTAA,-0.207
3,CTTGGATA,-0.135
4,ACCAGTAG,-0.171
5,AAGGGTCT,-0.327
6,GTTTAGGA,0.152
7,ATTGGCGA,-0.0395
8,AGAGCGGA,0.141
9,AATCACCT,-0.0815
10,AAGGACTT,-0.342
11,ATCTCATC,-0.0663
12,AGCCTCAT,-0.135
13,AAACTCTC,0.125
14,CGAACCCA,0.167
15,CATGGTTA,-0.0238
16,AGTGTGAG,-0.154
17,CTGTACGA,0.48
18,CAAATCCA,-0.131
19,CGCCACCG,0.0614
20,CCCGCAAA,0.148
21,TACCTAGA,-0.0531
22,AAACAAAA,0.021

row,Sequence,PBM E-score
1,ACAAAAAA,-0.0405
2,AACTAGGG,-0.221
3,CACTGTCA,-0.0998
4,CTCGCCTA,0.138
5,CGCGAGAA,0.119
6,CAGGAAAA,-0.019
7,CCGTATGC,0.268
8,CAGAAGGA,-0.338
9,GTCCATGA,-0.343
10,GCGCGACC,0.173
11,AACCTAAG,-0.172
12,TTCTTAAA,-0.107
13,CAGTTAAA,0.186
14,AGCCCTCG,0.118
15,AACAGATG,-0.183
16,GGAAATCC,-0.00159
17,GACGACGA,0.0563
18,AAAAACCA,0.0285
19,GCGATAAC,0.106
20,CATGTGAG,-0.258
21,ATACGTCG,0.286
22,CGACCATA,0.164

row,Sequence,PBM E-score
1,AGCCCGCT,-0.196
2,TACAAATA,0.0504
3,AAAGACAT,-0.243
4,AGGGGCAT,-0.116
5,AAAGTTAC,-0.014
6,CATTTGTA,-0.0327
7,CGGACCAC,0.136
8,AGACTGAG,-0.159
9,GGTATTAA,-0.00603
10,ACGGACTG,0.0978
11,CGCCTGCA,-0.292
12,CGAACTAA,0.122
13,ATTGAGTG,-0.0582
14,GATCAGGC,-0.0698
15,AGTCTAGA,-0.316
16,TCCAAGGA,-0.0814
17,GATCGACA,0.0362
18,CGTGCTAA,-0.112
19,CCATTTGA,-0.251
20,ACCCTCCC,-0.142
21,GTCGCAGA,0.123
